Values marked as one replicate rest on one cluster of the flow cell; about a third of the high ones do not repeat.
These sequences were tested on ATP (assay: switch fluorescence ratio, 500 uM ATP over buffer (Cy3 cluster intensity, sum of 5 cycles each) (fold (ratio)); higher = stronger signal-on switching upon ATP binding; sequences stand for … in TCGTCGGCAGCGTCAGATGTGTATAAGAGACAGTTTTTTTTTTTTTTTTTTTTTTTTT…TC). Conditions: aptamer strand: ATP DNA aptamer (quencher-CACCTGGGGGAGTATTGCGGAGGAAGG + anchor), 100 nM annealed; ATP concentration: 500 uM; one replicate.
Outline: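 Per cluster, summed Cy3 intensity from the target cycles was divided by that from the buffer cycles to give the fluorescence ratio, then averaged per switch-domain sequence. Clusters outside 100-1000 RFU were excluded. The Cy3-labelled switching-strand clusters, on a modified Illumina MiSeq flow-cell, were annealed to 100 nM quencher-labelled ATP aptamer and imaged in selection buffer, then after 15 min with 500 uM ATP at 22 °C, for five cycles with NaOH stripping and re-annealing between them.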
For CACCTACCAA, the switch fluorescence ratio was 1.42. CACCTCAGTC was tested, and the switch fluorescence ratio was 1.02. CACCTTAGCC was tested, and the switch fluorescence ratio was 1.11. Sequence CACCTTCTTT has a switch fluorescence ratio of 1.03. For CACGAAGAGT, the switch fluorescence ratio was 1.11. CACGACAGAA showed a switch fluorescence ratio of 1.12. In the case of CACGACTTGA, the switch fluorescence ratio is reported as 1.01. For CACGAGGTAG, the switch fluorescence ratio was 1.02. Work on CACGAGTTTT yielded a switch fluorescence ratio of 0.945. CACGCACTGC was tested, and the switch fluorescence ratio was 2.24. CACGCCGACG gave a switch fluorescence ratio of 1.18. CACGCCGGTC was tested, and the switch fluorescence ratio was 0.998. For CACGCGGTGA, the switch fluorescence ratio was 1.02. Sequence CACGCTGCGC has a switch fluorescence ratio of 1.02. For CACGCTGGGT, the switch fluorescence ratio was 1.04. CACGGAAAAG gave a switch fluorescence ratio of 0.971. Sequence CACGGAACGG has a switch fluorescence ratio of 1.06. With CACGGAATCA the switch fluorescence ratio was 1.11. Sequence CACGGACTGA has a switch fluorescence ratio of 1.44. Sequence CACGGAGCTC has a switch fluorescence ratio of 1.48. CACGGCATGT was tested, and the switch fluorescence ratio was 1.09. With CACGGGATTA the switch fluorescence ratio was 0.986. CACGGTCACT gave a switch fluorescence ratio of 1.36. For CACGGTTGGC, the switch fluorescence ratio was 1.05. CACGTACCGC was tested, and the switch fluorescence ratio was 1.51. For CACGTATCAG, the switch fluorescence ratio was 0.957. CACGTATGAG showed a switch fluorescence ratio of 1.05. CACGTCGCGC gave a switch fluorescence ratio of 1.08. For CACGTTCACT, the switch fluorescence ratio was 1.51. In the case of CACTACGACC, the switch fluorescence ratio is reported as 1.44. Sequence CACTACGGCG has a switch fluorescence ratio of 1.06. With CACTACTGCG the switch fluorescence ratio was 1.05. In the case of CACTAGTCCC, the switch fluorescence ratio is reported as 1.03. In the case of CACTATATGC, the switch fluorescence ratio is reported as 1.04. For CACTATGCCA, the switch fluorescence ratio was 1.02. In the case of CACTATGCTT, the switch fluorescence ratio is reported as 0.996. CACTATTTCT was tested, and the switch fluorescence ratio was 1.01. In the case of CACTCCAGGC, the switch fluorescence ratio is reported as 1.36. CACTGAGGTA gave a switch fluorescence ratio of 0.985. CACTGCATAT gave a switch fluorescence ratio of 1.94. With CACTGGACGA the switch fluorescence ratio was 1.3. Sequence CACTGGATGA has a switch fluorescence ratio of 0.983. CACTGGGGTA showed a switch fluorescence ratio of 1.04. In the case of CACTGTAGGC, the switch fluorescence ratio is reported as 1.18. CACTGTATGT was tested, and the switch fluorescence ratio was 1.24. For CACTGTTCCC, the switch fluorescence ratio was 1.04. CACTTAAAGA showed a switch fluorescence ratio of 0.992. In the case of CACTTACTAA, the switch fluorescence ratio is reported as 1.22. CACTTAGTAT showed a switch fluorescence ratio of 1.01. CACTTCGGCC gave a switch fluorescence ratio of 1.07. Work on CACTTCTGCC yielded a switch fluorescence ratio of 0.996. CACTTTCTA gave a switch fluorescence ratio of 1.01. For CACTTTTTAT, the switch fluorescence ratio was 1.01. CACTTTTTGA gave a switch fluorescence ratio of 0.932. CAGAAAGCGG showed a switch fluorescence ratio of 0.953. CAGAAGGAGG gave a switch fluorescence ratio of 1.01. Work on CAGAAGGGTA yielded a switch fluorescence ratio of 0.978. In the case of CAGAAGTATC, the switch fluorescence ratio is reported as 1.09. CAGAATCAGG was tested, and the switch fluorescence ratio was 0.955. CAGAATTCCT gave a switch fluorescence ratio of 0.997. Work on CAGAATTGTA yielded a switch fluorescence ratio of 0.998. CAGACCGTTG was tested, and the switch fluorescence ratio was 1. CAGACGTTAC showed a switch fluorescence ratio of 3.28. Work on CAGACTAACA yielded a switch fluorescence ratio of 1.1. With CAGACTCATA the switch fluorescence ratio was 1.04. CAGAGCCATT showed a switch fluorescence ratio of 0.98. CAGAGCGATA gave a switch fluorescence ratio of 5.83. Work on CAGAGCGTGG yielded a switch fluorescence ratio of 0.993. CAGAGGTTTG was tested, and the switch fluorescence ratio was 0.978. CAGAGTACTC was tested, and the switch fluorescence ratio was 1. CAGAGTAGCG was tested, and the switch fluorescence ratio was 0.942. CAGAGTGACC was tested, and the switch fluorescence ratio was 1.01. CAGAGTTATG showed a switch fluorescence ratio of 0.97. Work on CAGATAGCGT yielded a switch fluorescence ratio of 1.01. CAGATCACTG was tested, and the switch fluorescence ratio was 1.06. CAGATCTAGC gave a switch fluorescence ratio of 1.02. Sequence CAGATGAACC has a switch fluorescence ratio of 0.997. With CAGATGTAAG the switch fluorescence ratio was 0.977. In the case of CAGATGTCCG, the switch fluorescence ratio is reported as 1.01. Work on CAGCAACGGG yielded a switch fluorescence ratio of 1.08. CAGCAGATA gave a switch fluorescence ratio of 1.1. For CAGCAGGTCA, the switch fluorescence ratio was 0.962. Work on CAGCATACG yielded a switch fluorescence ratio of 1.83. In the case of CAGCATCGTA, the switch fluorescence ratio is reported as 0.979. CAGCATGTTG showed a switch fluorescence ratio of 1.02. With CAGCATTCAC the switch fluorescence ratio was 4.6. CAGCCAAAA gave a switch fluorescence ratio of 1.1. For CAGCCAATCA, the switch fluorescence ratio was 1.01. For CAGCCATTTT, the switch fluorescence ratio was 1.02. CAGCCCATGC gave a switch fluorescence ratio of 0.997. With CAGCCCCGAG the switch fluorescence ratio was 1.03. In the case of CAGCCCTGCC, the switch fluorescence ratio is reported as 1.11. CAGCCGTCTC was tested, and the switch fluorescence ratio was 0.97. Sequence CAGCCTCACA has a switch fluorescence ratio of 0.982. CAGCCTGAAC was tested, and the switch fluorescence ratio was 1.32. CAGCGACTTT showed a switch fluorescence ratio of 1.05. CAGCGAGAT was tested, and the switch fluorescence ratio was 1.07. For CAGCGAGCT, the switch fluorescence ratio was 1.04. CAGCGCATAA gave a switch fluorescence ratio of 2.51. CAGCGGCCCC was tested, and the switch fluorescence ratio was 1.1. CAGCGGTAAC gave a switch fluorescence ratio of 1.61. Sequence CAGCGTGAAT has a switch fluorescence ratio of 1. CAGCGTGTG gave a switch fluorescence ratio of 1.05. For CAGCTGCGGC, the switch fluorescence ratio was 1.01. For CAGCTTATTG, the switch fluorescence ratio was 0.971. Work on CAGGAAAAGT yielded a switch fluorescence ratio of 1.01. In the case of CAGGAAGTGT, the switch fluorescence ratio is reported as 1. Sequence CAGGAATAAG has a switch fluorescence ratio of 0.994. CAGGAATCCC gave a switch fluorescence ratio of 1.04. With CAGGACTAAG the switch fluorescence ratio was 1.04. In the case of CAGGAGTCGC, the switch fluorescence ratio is reported as 1.06. For CAGGATCCAT, the switch fluorescence ratio was 0.963. CAGGATTAGT gave a switch fluorescence ratio of 0.992. CAGGCCACAA showed a switch fluorescence ratio of 1.05. For CAGGCCACAT, the switch fluorescence ratio was 1.04. CAGGCGCCGT gave a switch fluorescence ratio of 0.999. Sequence CAGGCGCTGG has a switch fluorescence ratio of 0.988. For CAGGGATTA, the switch fluorescence ratio was 1.04. CAGGGCGTCG gave a switch fluorescence ratio of 0.997. CAGGGGAGTT was tested, and the switch fluorescence ratio was 1.02. CAGGGGCGAA was tested, and the switch fluorescence ratio was 1.02. With CAGGGGTCCT the switch fluorescence ratio was 1.02. In the case of CAGGGTGTGA, the switch fluorescence ratio is reported as 0.98. CAGGTAACCG was tested, and the switch fluorescence ratio was 0.938. Sequence CAGGTAACTT has a switch fluorescence ratio of 1.01. CAGGTAATC was tested, and the switch fluorescence ratio was 1.08. CAGGTATCT gave a switch fluorescence ratio of 1.04. With CAGGTGAAAC the switch fluorescence ratio was 1.03. With CAGGTGAGGG the switch fluorescence ratio was 1.29. With CAGGTGGTCG the switch fluorescence ratio was 1.05. Sequence CAGGTTACGT has a switch fluorescence ratio of 0.983. CAGGTTGAAT gave a switch fluorescence ratio of 1.01. CAGTAACGAT was tested, and the switch fluorescence ratio was 1. Work on CAGTAACTTG yielded a switch fluorescence ratio of 1.02. CAGTACTGA gave a switch fluorescence ratio of 0.991. In the case of CAGTAGAGCC, the switch fluorescence ratio is reported as 1. For CAGTAGATTA, the switch fluorescence ratio was 1.03. CAGTAGCTGC was tested, and the switch fluorescence ratio was 1.78. In the case of CAGTAGCTTA, the switch fluorescence ratio is reported as 1.71. CAGTATCAGG was tested, and the switch fluorescence ratio was 0.952. In the case of CAGTATCTAA, the switch fluorescence ratio is reported as 1. CAGTATGTGC showed a switch fluorescence ratio of 1. For CAGTCGTGTT, the switch fluorescence ratio was 0.977. In the case of CAGTCTGCC, the switch fluorescence ratio is reported as 1.01. CAGTCTGTTG showed a switch fluorescence ratio of 0.977. In the case of CAGTGCTTG, the switch fluorescence ratio is reported as 0.995. Work on CAGTGGGCAG yielded a switch fluorescence ratio of 1.01. CAGTGGGGAG was tested, and the switch fluorescence ratio was 1.05. Sequence CAGTGGTGGA has a switch fluorescence ratio of 1.02. Sequence CAGTGTACTT has a switch fluorescence ratio of 1.11. With CAGTGTCGTG the switch fluorescence ratio was 0.98. In the case of CAGTGTCT, the switch fluorescence ratio is reported as 1.03. CAGTTCAGT showed a switch fluorescence ratio of 1.02. In the case of CAGTTCCAGG, the switch fluorescence ratio is reported as 1.24. Sequence CAGTTCTGTT has a switch fluorescence ratio of 1.02. Work on CAGTTGCTCT yielded a switch fluorescence ratio of 1.02. Sequence CAGTTGGGAA has a switch fluorescence ratio of 0.99. CAGTTTCGCG was tested, and the switch fluorescence ratio was 1. CATAAAGTTG gave a switch fluorescence ratio of 1.04. CATAACGTCC gave a switch fluorescence ratio of 1.09. Sequence CATAACGTGC has a switch fluorescence ratio of 1.05. With CATAACGTGG the switch fluorescence ratio was 0.973. For CATAAGATAA, the switch fluorescence ratio was 1.02. CATAAGTCAC showed a switch fluorescence ratio of 1.11. With CATAATTGA the switch fluorescence ratio was 0.989. CATACCGCTG gave a switch fluorescence ratio of 1.4. Sequence CATACCTAAA has a switch fluorescence ratio of 1.05. Sequence CATACGGCCA has a switch fluorescence ratio of 1.11. CATACGTTGG showed a switch fluorescence ratio of 0.961. CATACTGGTA was tested, and the switch fluorescence ratio was 0.991. CATAGATCCA showed a switch fluorescence ratio of 1.02. For CATAGCAGAA, the switch fluorescence ratio was 1.11. Work on CATAGCGACC yielded a switch fluorescence ratio of 1.38. In the case of CATAGGACTA, the switch fluorescence ratio is reported as 1.02. Sequence CATAGGCAGA has a switch fluorescence ratio of 1.04. With CATAGGTGGG the switch fluorescence ratio was 0.949. Work on CATAGTCCGG yielded a switch fluorescence ratio of 0.956. CATAGTGACG gave a switch fluorescence ratio of 1.06. CATATAAAGC showed a switch fluorescence ratio of 1.05. For CATATAGGTG, the switch fluorescence ratio was 1.11. Sequence CATATATCTA has a switch fluorescence ratio of 0.956. CATATCCGGG gave a switch fluorescence ratio of 0.983. CATATCGATA gave a switch fluorescence ratio of 1.03. In the case of CATATGCGCA, the switch fluorescence ratio is reported as 1.01. With CATATTAGCT the switch fluorescence ratio was 0.96. Work on CATATTCGAA yielded a switch fluorescence ratio of 0.998. CATATTTAGT showed a switch fluorescence ratio of 0.974. In the case of CATCAATAGG, the switch fluorescence ratio is reported as 1.03. Work on CATCACCTGA yielded a switch fluorescence ratio of 1.01. CATCAGCCGG gave a switch fluorescence ratio of 1.09. CATCAGGTAC showed a switch fluorescence ratio of 1.39. CATCCATTTG was tested, and the switch fluorescence ratio was 1.04. CATCCTCCGG was tested, and the switch fluorescence ratio was 2.67. Sequence CATCCTTTCT has a switch fluorescence ratio of 1.06. Work on CATCGAGCGA yielded a switch fluorescence ratio of 1.15. In the case of CATCGGAACG, the switch fluorescence ratio is reported as 1.01. CATCGGGGA was tested, and the switch fluorescence ratio was 0.97. With CATCGGTCGG the switch fluorescence ratio was 1. Sequence CATCGTACGG has a switch fluorescence ratio of 1.01. CATCTACTTC gave a switch fluorescence ratio of 1.02.
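Note: ATP exposure 15 min at 22 °C before imaging.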
